Assay results as given in publication PMC2172684 (The Journal of Cell Biology, 2003).

Legend:
GST–RanGTP = GST–RanGTP (UniProt P62826); experiment: ELISA
[1] = target: T1, GST-tagged Nup358 (996–1963) ( (mammalian), UniProt P49792 996-1963); experiment: ELISA
T1 sequence (looked up): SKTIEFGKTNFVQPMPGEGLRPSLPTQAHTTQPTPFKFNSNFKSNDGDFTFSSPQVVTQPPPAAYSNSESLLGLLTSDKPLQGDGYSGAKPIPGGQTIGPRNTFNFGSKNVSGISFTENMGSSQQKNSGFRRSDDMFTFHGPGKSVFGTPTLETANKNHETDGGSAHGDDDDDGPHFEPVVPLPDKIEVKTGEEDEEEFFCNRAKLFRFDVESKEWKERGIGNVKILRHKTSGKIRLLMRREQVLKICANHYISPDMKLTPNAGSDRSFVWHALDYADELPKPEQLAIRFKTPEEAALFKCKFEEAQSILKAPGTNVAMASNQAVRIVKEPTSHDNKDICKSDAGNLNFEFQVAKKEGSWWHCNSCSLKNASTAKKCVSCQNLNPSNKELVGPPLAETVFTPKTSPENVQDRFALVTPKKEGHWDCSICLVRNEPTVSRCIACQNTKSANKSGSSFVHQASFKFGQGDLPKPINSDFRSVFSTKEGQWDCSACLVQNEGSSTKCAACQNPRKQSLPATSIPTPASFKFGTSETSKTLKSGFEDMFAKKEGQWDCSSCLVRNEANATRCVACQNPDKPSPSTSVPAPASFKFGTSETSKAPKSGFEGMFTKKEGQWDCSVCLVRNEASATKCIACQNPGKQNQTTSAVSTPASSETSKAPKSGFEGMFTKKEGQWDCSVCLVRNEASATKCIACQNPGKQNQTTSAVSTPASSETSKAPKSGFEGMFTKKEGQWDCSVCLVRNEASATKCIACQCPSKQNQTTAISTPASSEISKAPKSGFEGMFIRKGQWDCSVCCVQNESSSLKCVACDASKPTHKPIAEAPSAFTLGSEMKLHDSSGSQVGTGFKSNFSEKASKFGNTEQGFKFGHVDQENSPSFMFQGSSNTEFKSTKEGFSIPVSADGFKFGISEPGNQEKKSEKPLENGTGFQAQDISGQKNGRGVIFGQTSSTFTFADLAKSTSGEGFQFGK

B1: importin β E214A (natural protein)
chain: not shown
GST–RanGTP
  Kd: 3.1 ± 0.3 nM

B2: importin β F217A (natural protein)
chain: not shown
GST–RanGTP
  Kd: 4.1 ± 0.5 nM

B3: importin β F217A/Y255A (natural protein)
chain: not shown
GST–RanGTP
  Kd: 4.4 ± 0.6 nM

B4: importin β I178A (natural protein)
chain: not shown
[1]
  Kd: 245 ± 34 nM
GST–RanGTP
  Kd: 3.6 ± 0.3 nM

B5: importin β I178A/E214A (natural protein)
chain: not shown
GST–RanGTP
  Kd: 5.1 ± 0.6 nM

B6: importin β I178D (natural protein)
chain: not shown
GST–RanGTP
  Kd: 4.7 ± 0.6 nM

B7: importin β I178D/Y255A (natural protein)
chain: not shown
GST–RanGTP
  Kd: 44.1 ± 6.2 nM

B8: importin β I263R (natural protein)
chain: not shown
GST–RanGTP
  Kd: 3.9 ± 0.2 nM

B9: importin β Y255A (natural protein)
chain: not shown
GST–RanGTP
  Kd: 3 ± 0.5 nM
